{"source": "PubChem BioAssay (NCATS)", "key": {"[1]": {"assay": "qHTS for Inhibitors of Plasmodium falciparum (DD2) proliferation (AID 504314)", "details": "P. falciparum Dd2 in erythrocytes, SYBR Green growth, 72 h; series mostly up to 6.11 µM", "procedure,_shortened": "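Fluorescence read-out (ex 485/em 535 nm) of SYBR Green-stained parasite DNA quantifies intraerythrocytic growth. Cultures at 0.3% parasitemia and 2.5% hematocrit were treated for 72 h; data normalized to DMSO and 0.29 uM artemisinin wells.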"}, "[2]": {"assay": "qHTS for Inhibitors of Plasmodium falciparum (GB4) proliferation (AID 504315); further: nearly all actives have a fitted effect of over 50% in size", "details": "P. falciparum GB4 in erythrocytes, SYBR Green DNA, 72 h; activity change, negative = inhibition: at 6.7 µM (top of the series)", "procedure,_shortened": "(§1)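 Erythrocytes infected with P. falciparum line (0.3% parasitemia, 2.5% hematocrit final) incubated with compounds 72 h at 37 °C, 5% CO2; SYBR Green lysis buffer added, fluorescence read next day. Normalized to 0.29 uM artemisinin and DMSO.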"}, "[3]": {"assay": "qHTS for Inhibitors of Plasmodium falciparum (7G8) proliferation (AID 504316)", "details": "P. falciparum 7G8 in erythrocytes, SYBR Green DNA, 72 h; activity change, negative = inhibition: at 6.7 µM (top of the series)", "procedure,_shortened": "as §1"}, "[4]": {"assay": "qHTS for Inhibitors of Plasmodium falciparum (HB3) proliferation (AID 504318)", "details": "P. falciparum HB3 in erythrocytes, SYBR Green DNA, 72 h; activity change, negative = inhibition: at 7.21 µM (top of the series)", "procedure,_shortened": "as §1"}, "[5]": {"assay": "qHTS for Inhibitors of Plasmodium falciparum (CP250) proliferation (AID 504320)", "procedure,_shortened": "as §1"}}, "note": "Inconclusive means that the source gave no clear call. Such entries were picked first, then a sample of the others. Potencies of inconclusive entries are left out as doubtful fits. The source made the active and inactive calls. The call rests on the fitted dose curve; in most records, active means well fitted curve in the direction sought with a large enough effect; inconclusive means small, poorly fitted or top-dose-only effect, or another doubt; inactive means no such curve, though single readings can be large; an effect the other way counts as inactive or inconclusive. Potency means the concentration at half of the fitted maximal effect; tags describe the fitted curve by direction and shape."}
{"smiles": "C=C(C[C@@]1(C(=O)OC)C=C[C@@H](C)[C@H](c2ccccc2Br)N1C(=O)C(F)(F)F)c1ccccc1", "values": [{"measurement": "Potency", "setting": "[1]", "value": "inconclusive [inhibitor, single point]"}, {"measurement": "Potency", "setting": "[2]", "value": "inconclusive [inhibitor, single point]"}, {"measurement": "Potency", "setting": "[3]", "value": "active: 1900 nM"}, {"measurement": "Potency", "setting": "[4]", "value": "inconclusive [inhibitor, single point]"}, {"measurement": "Potency", "setting": "[5]", "value": "inconclusive [inhibitor, single point]"}]}
{"smiles": "COC(=O)C1=C(C(=O)OC)[C@@H]2N(Cc3ccccc3)c3ccccc3[C@@]23C[C@@H](CO)N(C(=O)CC(C)C)C3=N1", "values": [{"measurement": "Potency", "setting": "[1]", "value": "inconclusive [inhibitor, single point]"}, {"measurement": "Potency", "setting": "[2]", "value": "inconclusive [inhibitor, single point]"}, {"measurement": "Potency", "setting": "[3]", "value": "active: 1690 nM"}, {"measurement": "Potency", "setting": "[4]", "value": "inconclusive [inhibitor, single point]"}, {"measurement": "Potency", "setting": "[5]", "value": "inconclusive [inhibitor, single point]"}]}
{"smiles": "COC(=O)C1=C(C(=O)OC)[C@@H]2N(C)c3ccccc3[C@@]23C[C@@H](CO)N(C(=O)Nc2ccc(C(F)(F)F)cc2)C3=N1", "values": [{"measurement": "Potency", "setting": "[1]", "value": "inconclusive [inhibitor, partial curve, poor fit]"}, {"measurement": "Potency", "setting": "[2]", "value": "inconclusive [inhibitor, partial curve]"}, {"measurement": "Potency", "setting": "[3]", "value": "inconclusive [inhibitor, partial curve]"}, {"measurement": "Potency", "setting": "[4]", "value": "inconclusive [inhibitor, partial curve]"}, {"measurement": "Potency", "setting": "[5]", "value": "inconclusive [inhibitor, partial curve, poor fit]"}]}
